Experimental data published in PubChem BioAssay AID463173 (ICCB-Longwood Screening Facility, Harvard Medical School, 2010).
The campaign covered roughly 52,000 compounds. About 4,300 (8.3%) were called active. Rule as the data show it: active = survival mostly below about 52% (no sharp cut-off); inactive = mostly above about 56%. The list shows a part of the results.

Tested on: DeltatarO mutant
Assay: growth inhibition of S. aureus wild type versus tarO mutant, primary screen, teichoic acid synthesis inhibitors, RN4220, OD600 (AID 463173)
Settings: OD600, 18 h, hits give low values, screened at 18.75 µg/mL (by protocol)

SMILES	survival
CCC(=O)N1CCc2cc(Br)cc(S(=O)(=O)N3CCN(c4ccccc4OC)CC3)c21	inactive: 56%
Cc1ccc(CNC(=O)c2nc(SCc3ccccc3C)ncc2Cl)cc1	inactive: 76%
Cc1nc2ccn(Cc3cccs3)c(=O)c2cc1C(=O)N1CCN(c2ccccc2F)CC1	inactive: 55%
Cc1ccc(NS(=O)(=O)c2ccc3[nH]c4c(c3c2)CCCC4)cc1N(C)C	inactive: 70%
CC1S/C(=N\NC(=O)CNc2cccc(Cl)c2)N(c2ccccc2)C1=O (stereo unspecified)	inactive: 82%
COc1cccc(NC(=O)c2ccc3c(c2)CCN3S(C)(=O)=O)c1	inactive: 84%
CC1CCN(S(=O)(=O)c2ccc3c(c2)N(CC(=O)NCCc2ccccc2)C(=O)CO3)CC1	inactive: 93%
Cc1ccc(CNC(=O)c2ccc(CSCc3cccc(C)c3)o2)cc1	inactive: 93%
Cc1cc(C)cc(-n2c(SCC(=O)N3CCOCC3)nc3c([nH]c4ccccc43)c2=O)c1	inactive: 128%
Cc1ccc(C)c(OCCn2c(CCNC(=O)C3CCCCC3)nc3ccccc32)c1	inactive: 59%
COc1cccc(-c2nnc(-c3ccccc3NC(=O)c3ccc(F)cc3F)o2)c1	inactive: 78%
CNC(=O)C1CCC(Cn2c(=O)c3sccc3n(CC(=O)Nc3ccc(C)c(F)c3)c2=O)CC1 (stereo unspecified)	inactive: 80%
COc1ccc(C)cc1NC(=O)C1CCCN(S(=O)(=O)c2ccc3[nH]c(=O)ccc3c2)C1 (stereo unspecified)	inactive: 77%
O=C(COc1ccc2ccccc2c1)Nc1ccc(NC(=O)c2ccco2)cc1	inactive: 86%
COc1cc(NC(=O)CN2C(=O)CN(C)C(=O)c3ccccc32)cc(OC)c1OC	inactive: 120%
CCOc1cc2[nH]c(=O)n(CCCC(=O)N3CCN(c4ccc(OC)cc4)CC3)c(=O)c2cc1OCC	inactive: 68%
CCOC(=O)c1c(C)[nH]c(C)c1S(=O)(=O)N1CCC(C(=O)Nc2ccc(C)cn2)CC1	inactive: 72%
CCOc1ccc(CCNC(=O)Cn2ncc3c(=O)oc4ccc(C)cc4c32)cc1	inactive: 79%
CCn1c2ccccc2c2cc(NC(=O)COc3cccc(C)c3)ccc21	active: 27%

SMILES	survival
CCOc1ccc(N(CC(=O)NCc2ccc(C)cc2)S(=O)(=O)c2c(C)noc2C)cc1	inactive: 92%
O=C(c1ccc(CSc2nc3ccncc3n2Cc2cccc(F)c2)cc1)N1CCCCC1	inactive: 73%
CC1=C(c2ccc(C(C)C)cc2)S(=O)(=O)NC1=NCc1ccccc1Br	inactive: 75%
Cc1cccc(NC(=O)Cn2c(=O)nc(-c3ccccc3)c3ccccc32)c1C	inactive: 95%
O=C(NCc1ccco1)C(c1ccco1)N(C(=O)Cn1nnc2ccccc21)c1ccccc1 (stereo unspecified)	inactive: 65%
O=C(/C=C/c1ccco1)ON1C(=O)c2ccccc2C1=O	inactive: 91%
CCOc1ccc(CCNC(=O)c2cn(CC)c3ccc(S(=O)(=O)N4CCCCCC4)cc3c2=O)cc1OCC	inactive: 71%
CC(=O)N1CCCc2cc(S(=O)(=O)N(C)CC(=O)Nc3cccc(C)c3C)ccc21	inactive: 67%
O=C1c2[nH]nc(-c3ccccc3O)c2C(c2cccc(Cl)c2)N1Cc1cccnc1 (stereo unspecified)	inactive: 65%
O=C(N/N=C/C=C/c1ccco1)c1ccccc1F	inactive: 96%
O=C(NCCN1CCN(c2cccc(Cl)c2)CC1)C1COc2ccccc2C1 (stereo unspecified)	inactive: 95%
Cc1cccc(CNC(=O)Cn2ccc3cc(S(=O)(=O)N4CCCC4)ccc32)c1	inactive: 73%
CCCCN1CC(c2nc3ccccc3n2CCCCOc2ccc(C)c(C)c2)CC1=O (stereo unspecified)	active: 20%
Cc1ccc(F)c(NC(=O)Nc2ccc3snnc3c2)c1	inactive: 97%
CC(C)C(c1nnnn1CCc1ccccc1)N(Cc1ccco1)Cc1ccccc1Cl (stereo unspecified)	inactive: 56%
Cn1cc(C(=O)NCc2ccccc2)c(=O)c2cc(S(=O)(=O)N3CCOCC3)ccc21	inactive: 91%
Cc1cccc(NC(=O)Cn2nnc(C(=O)Nc3ccccc3Br)c2N)c1C	active: 8%
COc1cccc(-c2nc(CS(=O)(=O)CC(=O)Nc3c(C)cc(C)cc3C)c(C)o2)c1	inactive: 68%
COc1cccc(N2CCN(C(=O)C3CCN(S(=O)(=O)c4c(C)noc4C)CC3)CC2)c1	inactive: 96%

SMILES	survival
O=C(NC1CC(=O)N(c2ccc(Cl)cc2)C1)c1ccc2c(c1)OCO2 (stereo unspecified)	inactive: 78%
CCOC(=O)c1cc(-c2ccc(C)cc2)n(CCC(=O)Nc2ccc(C(C)C)cc2)c1C	inactive: 61%
CN(C)S(=O)(=O)c1ccc(C(=O)NC2CC(=O)N(c3ccc4c(c3)OCCO4)C2)cc1 (stereo unspecified)	inactive: 74%
C[n+]1ccn(CC(=O)c2ccccc2)c1	inactive: 78%
COc1cc(C2C(C(=O)Nc3ccc(C)cc3C)=C(C)Nc3nc4ccccc4n32)cc(OC)c1OC (stereo unspecified)	inactive: 55%
Cc1cccc(NC(=O)CS(=O)(=O)c2nc(-c3ccccc3)cn2-c2cccc(Cl)c2)c1C	inactive: 63%
CCc1cccc(C)c1NC(=O)CSc1nc2ccccc2nc1N1CCOCC1	inactive: 81%
CC1(C)O[C@H]2[C@@H](O1)[C@@H](C(=O)Nc1ccc(F)c(F)c1)O[C@@H]1OC(C)(C)O[C@@H]12	inactive: 103%
Cc1cc(F)ccc1NS(=O)(=O)c1c(C)nc2scc(C)n2c1=O	inactive: 74%
CSc1ccc(CCNC(=O)CN2C(=O)c3cccnc3Oc3ccc(C)cc32)cc1	inactive: 77%
COc1cccc(C(O)C(F)(F)F)c1 (stereo unspecified)	inactive: 101%
Cc1cc(NC(=O)N(C)CCc2c(C)nn(C)c2C)ccc1Br	inactive: 89%
CCCN1CCN(CCCNC(=O)Cn2nc(CC)n3c(cc4occc43)c2=O)CC1	inactive: 128%
N=c1n(CCN2CCCCC2)c2ccccc2n1CC(O)COc1ccc(Cl)cc1Cl (stereo unspecified)	active: -16%
Cc1ccc(CCNC(=O)c2ccc(CSCc3ccccc3Cl)o2)cc1	inactive: 87%
Cc1ccc(N(C)S(=O)(=O)c2nnc(NC(=O)C3CCCCC3)s2)cc1	inactive: 88%
NNc1nc2sc3c(c2c(=O)[nH]1)CCCC3	inactive: 81%
CCc1ccc(CNC(=O)c2cc(-c3ccc(Cl)s3)nc3ccccc23)cc1	inactive: 83%
